Assay results from PMC8335751 (Nature structural & molecular biology, 2021).

Target: the molecule itself
Experiment: cryo-EM structure

B1: full-length rat TRPV1 (transient receptor potential vanilloid member 1) (natural protein)
chain: not shown
  stoichiometry N: 4
